# Laboratory results from PubChem BioAssay AID624202 (National Center for Advancing Translational Sciences (NCATS), 2012).
# The campaign covered roughly 380,000 compounds. About 4,000 (1.1%) were called active. The shares of active, inactive and inconclusive entries below differ from those in the screen. The call rests on the fitted dose curve; in most records, active means well fitted activation curve with a large enough effect; inconclusive means small, poorly fitted or top-dose-only effect; inactive means no such curve, though single readings can be large or run the other way. Potencies beside an inconclusive call are fits to weak or partial responses and may not hold up.
# Experiment: qHTS Assay to Identify Small Molecule Activators of BRCA1 Expression; further: nearly all actives have a fitted effect of over 80% in size
# Details: MCF7-BRCA1-FFLuc reporter, luminescence, 48 h; activation: at 46.1 µM (top of the series), scaled: vehicle 0%, 10 µM genistein 100% unless noted
# Outline: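 Luminescence from a BRCA1-driven firefly luciferase in MCF7 cells was the read-out, taken 15 min after substrate addition following 48 h compound exposure at 37 °C. Data were normalized to a 10 microM genistein control and DMSO vehicle.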
# Potency means the concentration at half of the fitted maximal effect; tags describe the fitted curve by direction and shape.
SMILES,Potency,activation
COc1cccc(NC(=O)c2ccco2)c1,"inconclusive: 8.91 µM [activator, partial curve, poor fit]",
CCNC(=S)Nc1ccc(N2CCCCC2)cc1,"inconclusive: 10 µM [activator, partial curve, poor fit]",
COC(=O)N/N=C/c1ccc(Oc2ccccc2)cc1,active: 10 µM,
O=C(CSc1nnc2ccc(-c3ccccn3)nn12)NCC1CCCO1 (stereo not drawn),,inactive: 4.52%
O=C(Nc1ccc(Br)cc1F)c1ccc2nc(CCc3ccccc3)oc2c1,"inconclusive: 35.5 µM [activator, single point]",
COc1ccc(S(=O)(=O)N2CCC(C(=O)NCC3CCCO3)CC2)cc1Cl (stereo not drawn),,inconclusive: 70.7% [activator]
CC(=O)c1ccc(OCCCC(=O)Nc2ccc(C)c(S(=O)(=O)N3CCCCC3)c2)cc1,,inactive: -48.5%
Cc1cc(C)n(CCN(C)C(=O)CCc2nnc(CCC3CCCCC3)o2)n1,active: 11.2 µM,
NC(=O)[C@H]1CC2(CC(c3cccc(NC(=O)COc4ccc(Cl)cc4)c3)=NO2)CN1C(=O)c1ccc(Cl)cc1 (stereo partly drawn),,inactive: -69.5%
COc1cc(/C=N/OCC(=O)NC2CCCCC2C)ccc1OCc1ccc(Cl)cc1 (stereo not drawn),"inconclusive: 1 µM [activator, full curve, poor fit]",
COc1ccc(CCNC(=O)C2CC(c3ccccc3[N+](=O)[O-])=NO2)cc1 (stereo not drawn),"inconclusive: 25.1 µM [activator, single point]",
O=C(Nc1ccc2c(c1)OCO2)c1ccc(=O)[nH]n1,active: 11.2 µM,
Cc1oc(-c2ccc(-c3ccccc3)cc2)nc1CN1CCN(CC(=O)N(C)C)CC1,active: 8.91 µM,
COc1cc2c(cc1OC)C(COc1ccccc1OC)N(C(=O)c1ccc(S(=O)(=O)N3CCCC3)cc1)CC2 (stereo not drawn),,inactive: -21.2%
CC(C)c1cc2cc3ccc(=O)oc3cc2o1,"inconclusive: 15.8 µM [activator, partial curve, poor fit]",
COc1ccc(Nc2nc(-c3ccccc3O)nc3ccccc23)cc1,,inactive: -51%
c1ccc2c(c1)Nc1cc3ccccc3cc1S2,active: 7.08 µM,
COc1cc2c(cc1OC)CN(C(=O)c1ccc3[nH]c(C)c(C)c3c1)CC2,,inactive: -18.1%
COc1ccc(C(C[N+](=O)[O-])c2c(C)[nH]c3ccccc23)cc1OC (stereo not drawn),"inconclusive: 31.6 µM [activator, single point]",
COc1cccc(-c2cc(C(=O)N3CCCCCC3)no2)c1,"inconclusive: 1.26 µM [activator, full curve, poor fit]",
Nc1ccc2oc(-c3cccs3)nc2c1,"inconclusive: 2.24 µM [activator, full curve, poor fit]",
CNc1ncc(C(=O)c2ccc(-c3ccccc3)cc2)s1,active: 2.82 µM,
Cc1scc(C(=O)N/N=C/c2ccsc2)c1C,"inconclusive: 4.47 µM [activator, full curve, poor fit]",
C=CCn1c(N)c(C(=O)Nc2ccc(C)cc2)sc1=S,active: 1.26 µM,

SMILES,Potency,activation
COC(=O)c1cccc(NC(=O)c2cc3sccc3n2C)c1,"inconclusive: 0.631 µM [activator, full curve, poor fit]",
Cc1ccccc1SCCNC(=O)c1ccccc1Br,"inconclusive: 11.2 µM [activator, partial curve, poor fit]",
Cc1ccccc1OCc1nnc2c3cnn(C)c3ncn12,"inconclusive: 12.6 µM [activator, partial curve, poor fit]",
COc1cccc(NC(=O)c2oc3ccccc3c2NC(C)=O)c1,active: 3.55 µM,
CCOc1ccc(C(=O)Nc2nccs2)cc1[N+](=O)[O-],"inconclusive: 7.94 µM [activator, partial curve, poor fit]",
Cc1ccc(NC(=O)c2ccc(CSc3nnc(C)s3)cc2)cc1,"inconclusive: 2.51 µM [activator, partial curve, poor fit]",
Cc1ccccc1OCCOc1cccc(/C=N/NC(=O)Cc2nnc(N)s2)c1,"inconclusive: 3.16 µM [activator, partial curve, poor fit]",
COc1ccc2c(c1)CCCC(Br)C2=O (stereo not drawn),,inactive: -10%
CCN(CC)c1ccc(C(=O)Nc2cccc(F)c2)cc1,"inconclusive: 0.631 µM [activator, full curve, poor fit]",
CCCCOc1ccc(OCCNC(=O)C2CCCN2C(=O)Nc2ccccc2)cc1 (stereo not drawn),,inactive: -12.4%
COc1ccc2nc(NC(=O)C3CCCO3)sc2c1 (stereo not drawn),"inconclusive: 2 µM [activator, partial curve, poor fit]",
COc1ccc(C(=O)Nc2cc3c(cc2Cl)OCCCO3)cc1,"inconclusive: 12.6 µM [activator, partial curve, poor fit]",
CCCN1CCN(CCNC(=O)Nc2cc(C)ccc2C)CC1,,inactive: -8.59%
Cc1cccc(CSc2nnc(-c3ccco3)o2)c1,"inconclusive: 35.5 µM [activator, single point]",
C=CCN(C(=O)CSc1nc2ccsc2c(=O)n1Cc1ccccn1)c1ccccc1,"inconclusive: 28.2 µM [activator, single point]",
Cc1cc(C(=O)CSc2cccc[n+]2[O-])c(C)n1-c1ccccc1,,inconclusive: -51.9% [activator]
COc1cccc(COc2ccc3ccc(=O)oc3c2)c1,"inconclusive: 7.08 µM [activator, partial curve, poor fit]",
Cc1ccc(CCC(=O)Nc2ncc(Cc3cccc(Cl)c3Cl)s2)o1,,inconclusive: -70.5% [activator]
CC(=O)COC(=O)C1CCN(S(=O)(=O)c2cc([N+](=O)[O-])ccc2Cl)CC1,,inactive: -34%
O=C(Nc1ccc2nc(-c3ccc(Br)o3)[nH]c2c1)c1ccco1,active: 6.31 µM,
COc1ccc(-c2nnc(SCC(=O)N3CCCCC3)o2)cc1,"inconclusive: 12.6 µM [activator, partial curve, poor fit]",
CN(C)c1ccc(NC(=O)c2cccc(C(=O)Nc3ccc(N(C)C)cc3)n2)cc1,,inactive: -23.2%
Cc1ccc2c(c1)/C(=N/N1C(=O)c3ccccc3C1=O)C(=O)N2,,inactive: -28.7%
CCc1noc(C)c1C(=O)NCCc1ccccc1,active: 10 µM,
